The values below come from PMC6345998.

The chains behind the UniProt entries cited, without tags or fusion partners. Where a name states a change or a piece, a line headed by the entry shows the natural chain unless it says otherwise. Residues count along the entry.
UniProt P05627: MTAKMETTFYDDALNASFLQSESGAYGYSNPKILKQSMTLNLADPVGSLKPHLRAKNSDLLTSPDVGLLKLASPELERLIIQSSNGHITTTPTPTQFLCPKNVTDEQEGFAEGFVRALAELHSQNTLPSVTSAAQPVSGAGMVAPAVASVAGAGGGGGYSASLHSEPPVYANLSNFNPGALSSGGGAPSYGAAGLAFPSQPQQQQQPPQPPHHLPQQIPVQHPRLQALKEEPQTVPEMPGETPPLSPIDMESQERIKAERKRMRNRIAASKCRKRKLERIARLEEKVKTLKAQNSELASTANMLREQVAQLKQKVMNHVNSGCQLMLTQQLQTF
UniProt Q62296: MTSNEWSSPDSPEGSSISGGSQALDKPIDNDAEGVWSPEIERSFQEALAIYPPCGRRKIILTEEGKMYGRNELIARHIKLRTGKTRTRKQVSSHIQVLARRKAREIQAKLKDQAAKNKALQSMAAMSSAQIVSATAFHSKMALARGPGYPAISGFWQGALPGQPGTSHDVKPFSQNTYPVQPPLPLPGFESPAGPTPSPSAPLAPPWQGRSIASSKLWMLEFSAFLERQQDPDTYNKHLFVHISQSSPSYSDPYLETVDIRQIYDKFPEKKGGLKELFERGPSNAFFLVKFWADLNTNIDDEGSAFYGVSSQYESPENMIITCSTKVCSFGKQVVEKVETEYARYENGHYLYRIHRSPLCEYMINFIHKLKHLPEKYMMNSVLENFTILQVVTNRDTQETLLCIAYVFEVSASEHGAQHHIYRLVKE
UniProt Q9EPK5: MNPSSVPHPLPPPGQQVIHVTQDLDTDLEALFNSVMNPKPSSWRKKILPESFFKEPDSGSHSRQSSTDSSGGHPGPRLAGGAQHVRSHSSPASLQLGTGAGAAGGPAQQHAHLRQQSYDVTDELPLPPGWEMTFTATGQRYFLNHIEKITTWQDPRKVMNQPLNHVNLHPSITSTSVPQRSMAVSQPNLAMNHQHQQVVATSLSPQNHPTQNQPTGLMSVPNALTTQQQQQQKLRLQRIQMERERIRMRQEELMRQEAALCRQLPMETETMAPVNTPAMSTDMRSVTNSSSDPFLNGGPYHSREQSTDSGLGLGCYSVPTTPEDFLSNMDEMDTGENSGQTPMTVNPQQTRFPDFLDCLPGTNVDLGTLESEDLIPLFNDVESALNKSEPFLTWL
N-terminus-deleted TAZ (amino acids 124-395): residues 124-395 of Q9EPK5
N-terminus-deleted TAZ (amino acids 164-395): residues 164-395 of Q9EPK5

Results are given in words; binding and its absence hold for the method and conditions named. In cells and extracts the contact can be indirect. Some entries that bind do so weakly or less than the wild type.

Test [1] has as its target c-Jun (endogenous, mouse) (mouse (endogenous in C2C12 and in mouse muscle)) (UniProt P05627). As to the kind of experiment: co-IP; endogenous proteins in mouse muscle (Supplementary Fig. 10); precipitating antibody not told in the text shown.
Test [2] concerns the target Tead4 (endogenous, mouse muscle) (mouse (endogenous in muscle)) (UniProt Q62296). Described as above.
The target of test [3] is c-Jun (endogenous, mouse) (mouse (endogenous in C2C12 and in mouse muscle)) (UniProt P05627). In words: co-IP; endogenous proteins, C2C12 cell lysates; immunoprecipitation with IgG or c-Jun antibodies, blot with TAZ and c-Jun antibodies.
The target in test [4] is N-terminus-deleted TAZ (amino acids 124-395) (UniProt Q9EPK5). In words: co-IP; 293T cells co-transfected with FLAG-TAZ constructs and c-Jun; lysis in RIPA buffer; immunoprecipitation with anti-FLAG antibodies, blot with TAZ and c-Jun antibodies.
For test [5], the target named is N-terminus-deleted TAZ (amino acids 164-395) (UniProt Q9EPK5). The description is as above.
In test [6] the target is FLAG-tagged TAZ, wild type (amino acids 1-395) (UniProt Q9EPK5). The description is as above.

Turning to “TAZ (endogenous, mouse) (from UniProt Q9EPK5 1-395)”, the binding entry in test [1], in test [2] and in test [3] was “binds” throughout.

As for “c-Jun (ectopically expressed) (from UniProt P05627 1-334)”, the binding entry in test [4] was “binds”; in test [5], “no binding”; in test [6], “binds”.
